# Results published in the antibiotic and cytotoxicity screens of Wong et al. (2023).
# The other results are listed elsewhere or left out.
# Key:
# HSkMC = human skeletal muscle cells; test: cytotoxicity call (relative viability < 0.9); conditions: 10 µM
# HepG2 = test: cytotoxicity call (relative viability < 0.9); conditions: 10 µM
# S. aureus RN4220 = test: growth inhibition call (relative growth <= 0.2); conditions: 50 µM
SMILES,cytotoxicity call (HSkMC),cytotoxicity call (HepG2),growth inhibition call (S. aureus RN4220)
COc1ccc(-c2cnc3c(c2)C(=O)N([C@@H](C)CO)C[C@H](C)[C@H](CN(C)C(=O)Cc2ccncc2)O3)cc1,inactive,inactive,inactive
C[C@@H]1CN([C@H](C)CO)C(=O)c2cc(NS(=O)(=O)c3ccc(Cl)cc3)ccc2O[C@@H](C)CCCCO[C@H]1CN(C)S(=O)(=O)c1ccccc1,inactive,active,inactive
Cc1noc(C)c1NC(=O)N(C)C[C@H]1OCCCC[C@@H](C)Oc2ccc(NC(=O)NC3CCCCC3)cc2C(=O)N([C@@H](C)CO)C[C@H]1C,inactive,inactive,inactive
C[C@H](CO)N1C[C@H](C)[C@@H](CN(C)C(=O)Nc2cccc3ccccc23)OCCCC[C@H](C)Oc2ccc(NC(=O)c3ccccc3)cc2C1=O,inactive,inactive,inactive
CC(C)NC(=O)Nc1ccc2c(c1)CC(=O)N([C@@H](C)CO)C[C@@H](C)[C@@H](CN(C)Cc1ccc(Oc3ccccc3)cc1)O2,inactive,inactive,inactive
C[C@@H]1CN([C@@H](C)CO)C(=O)c2cccc(NC(=O)c3cnccn3)c2O[C@H]1CN(C)S(=O)(=O)c1ccc(Cl)cc1,inactive,inactive,inactive
COc1ccccc1NC(=O)N(C)C[C@H]1Oc2ncc(Br)cc2C(=O)N([C@H](C)CO)C[C@H]1C,inactive,inactive,inactive
Cc1ccc(S[C@]2(C(=O)NCC(F)(F)F)CC(=O)N(C3CCCCC3)[C@@H]2c2ccc(CO)cc2I)cc1,inactive,inactive,inactive
